In the supplement of paper PMC7125110:
This sample is rich in variants without activity.

B1: glmS ribozyme (parent)
chain: AUAAAAGCGCCAGAACUACAGAAAUGUAGUUGACGAGGAGGAGGUUUAUCGAAUUUUCGGCGGAUGCCUCCAAA

Assays:
Conditions in all cases: with glucosamine-6-phosphate
[1] = variants of: B1; test: self-cleavage kobs at 40 uM GlcN6P; higher = faster cleavage; RNA array
Procedure, shortened: (§1)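 Glucosamine-6-phosphate in HEPES/KCl/Mg(OAc)2 buffer, at 40 μM to 10 mM, was flowed over barcoded ribozyme variants transcribed in situ by E. coli RNA polymerase on sequenced MiSeq chips. Tracking was through a hybridised Cy3 probe at 37 °C. kobs, kcat and KM came from exponential decay fits and weighted Michaelis–Menten fits of normalised per-tile medians.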

[2] = variants of: B1; test: self-cleavage kobs at 640 uM GlcN6P; higher = faster cleavage; RNA array
Procedure, shortened: as §1

[3] = variants of: B1; test: self-cleavage kobs at 2500 uM GlcN6P; higher = faster cleavage; RNA array
Procedure, shortened: as §1

[4] = variants of: B1; test: self-cleavage kobs at 10000 uM GlcN6P; higher = faster cleavage; RNA array
Procedure, shortened: as §1

[5] = variants of: B1; test: self-cleavage kobs at 160 uM GlcN6P; higher = faster cleavage; RNA array
Procedure, shortened: as §1

| Variant | self-cleavage kobs at 40 uM GlcN6P [1] | self-cleavage kobs at 640 uM GlcN6P [2] | self-cleavage kobs at 2500 uM GlcN6P [3] | self-cleavage kobs at 10000 uM GlcN6P [4] | self-cleavage kobs at 160 uM GlcN6P [5] |
| --- | --- | --- | --- | --- | --- |
| AUAAACGCGCCAGAAGUACAGAAAUGUAGUUGACGAGGAGGAGGUUUAUCGAAUUUUCGGCGGAUGCCUCAAAA | < 1e-05 s⁻¹ |  |  |  |  |
| AUAAACGCGCCAGAACUACAGAAAUGUAGUUGAGGAGGAGGAGGUUUAUCGAAUUUUCGGCGGAUGCCUCCAAA | < 1e-05 s⁻¹ | < 1e-05 s⁻¹ | < 1e-05 s⁻¹ | < 1e-05 s⁻¹ |  |
| AUAAACACGCCAGAACUACAGAAAUGUAGUUGACGAGGAGGAGGUUUAUCGAAUUUUCGGCGGCUCCCUCCAAA | < 1e-05 s⁻¹ |  |  |  |  |
| AUAAACGCGCCAGAACUACAGAAAUGUAGUUGACGAGGAGCAGGUUUAUCGAAUUUUCGGCGGAUGCCUCCAAA | < 1e-05 s⁻¹ | < 1e-05 s⁻¹ | < 1e-05 s⁻¹ | < 1e-05 s⁻¹ |  |
| AUAAACGCGCCAGAACUACAGAAAUGUAGUUGAAGAGGAGGAUGUUUAUCGAAUUUUCGGCGGAUGCCUCCAAA | < 1e-05 s⁻¹ | < 1e-05 s⁻¹ |  | < 1e-05 s⁻¹ | < 1e-05 s⁻¹ |
| AUAAACGCGCCAGAACUACAGAAAUGUAUUUAACGAGGAGGAGGUUUAUCGAAUUUACGGCGGAUGCCUCCAAA | < 1e-05 s⁻¹ | < 1e-05 s⁻¹ |  | < 1e-05 s⁻¹ |  |
| AUAAACGCGUCAGAACUACAGAAAUGUAGUUGACGAGGAGGAGGUUUAUCGAAUUUUCGGCGGAUGCCUCCAAA | < 1e-05 s⁻¹ | < 1e-05 s⁻¹ | < 1e-05 s⁻¹ | < 1e-05 s⁻¹ | < 1e-05 s⁻¹ |
| AUAAACGCGCCACAACUACAGAAAUGUAGUUGACGAGGAGGAGGUUUAUCGAAUUUUCGGCGGAUGCCUCCAAA | < 1e-05 s⁻¹ | < 1e-05 s⁻¹ | < 1e-05 s⁻¹ | < 1e-05 s⁻¹ | < 1e-05 s⁻¹ |
| AUAAACGCGCCAAAACUACAGAAAUGUAGUUGACGAGGAGGAGGUUUAUCGAAUUUUCGGCGGAUGCCUCCAAA | < 1e-05 s⁻¹ | < 1e-05 s⁻¹ | < 1e-05 s⁻¹ | < 1e-05 s⁻¹ | < 1e-05 s⁻¹ |
| AUAAACGCGCCAGAACUACAGAAAUGUAGUUGACGAGGAGGAGGUUUAUCGAAUUUUCGCCGGAUGCCUCCAAA | < 1e-05 s⁻¹ |  | < 1e-05 s⁻¹ | < 1e-05 s⁻¹ | < 1e-05 s⁻¹ |
| AUAAACGCGCCAGAACUACAGAAAUGUAGUUGACUAGGAGGAAGUUUAUCGAAUUUUCGGCUCAUGCCUCUAAA | < 1e-05 s⁻¹ |  |  | < 1e-05 s⁻¹ |  |
| AUAAACGCGCCAGAACUACAGAAAUGUAGUUGAAGAGGAGGGGGUUUAUCGAAUUUUCGGCGGAUGCCUCCAAA | < 1e-05 s⁻¹ |  |  | < 1e-05 s⁻¹ |  |
| AUAAACGCGCCAGAACUACAGAAAUGUAGUUGACGAGGAAGAGGUUUAUCGAAUUUCCGGCGGAUGCCUCCAAA | < 1e-05 s⁻¹ |  |  | < 1e-05 s⁻¹ |  |
| AUAAACGCGCCAGAAUUACAGAAAUGUAGUUGACGAGGAGGAGGUUUAUCGAAUUUUCUGCGGAUGCCUCCAAA | < 1e-05 s⁻¹ | < 1e-05 s⁻¹ | < 1e-05 s⁻¹ | < 1e-05 s⁻¹ |  |
| AUAAACGCGCCAGAACUACAGAAAUGUAGUUGAUGAGGAGGAAGUUUAUCGAAUUUUCGGCGGAUGCCUCCAAA | < 1e-05 s⁻¹ |  |  |  |  |
| AUAAACUCGCCAGAUCUACAGAAAUGUAGUUGACGAGGAGGAGGGUUAUCGAAUUUUCGGCGGUUGCAUCCAAA | < 1e-05 s⁻¹ |  |  | < 1e-05 s⁻¹ |  |
| AUAAACGUGCCAGAACUACAGAAAUGUAGUUGACGAGGAGGAGGUUUAUCGAAUUUUCGGCGGAUGCAUACAAA | < 1e-05 s⁻¹ |  |  |  |  |
| AUAAACUCGCCAGAACUACAGAAAUGUAGUUGACGAGGAGGAGUUUUAUCGAAUUUUCGGCGGAUGCCUCCAAA | < 1e-05 s⁻¹ |  |  |  |  |
| AUAAACGCGCCAGAACUACAGAAAUGUAGUUAACGAGGAGGAGGUUUAUCGAAUUUUCGGCGGAUGCCACCAAA | < 1e-05 s⁻¹ |  |  |  |  |
| AUAAACGCGCGAGAACUACAGAAAUGUAGUUGACGAGGAGGAGGUUUAUCGAAUUUUCGGCGGAUGCCUCCAAA | < 1e-05 s⁻¹ | < 1e-05 s⁻¹ | < 1e-05 s⁻¹ | < 1e-05 s⁻¹ |  |
| AUAAACGCACCAGAACUACAGAAAUGUAGUUGACGAGGAGGAGGUUUAUCGAAUUUUCGGCGGAUGCCUACAAA | < 1e-05 s⁻¹ | < 1e-05 s⁻¹ |  |  | < 1e-05 s⁻¹ |
| AUAAACGCGCCAGAACUACAGAAAUGUAGUUGACUAGAAGGAUGUUUAUCGAAGUUUCGGCGGAUGUCUCCAAA | < 1e-05 s⁻¹ |  |  |  |  |
| AUAAACUCGCCUGAUCUACAGAAAUGUAGUUGACGAGGAGGAGGUUUAUCGAAUUUUCGGCGGAUGCCUCCAAA | < 1e-05 s⁻¹ |  |  | < 1e-05 s⁻¹ |  |
| AUAAACGCGCCAGAACUACAGAAAUGUAGUUGACUAGGAGGAGGUUUAUCGAAUUUUCGGCGGAUGCGUCCAAA | < 1e-05 s⁻¹ | < 1e-05 s⁻¹ |  |  |  |
| AUAAACGCGCCAAAACUACAGAAAUGUAGUUGACGAGGAGGAGGUUUAUCGCAUUUUCGGCGGAUGCCUCCAAA | < 1e-05 s⁻¹ |  |  |  |  |
| AUAAACGGGCCAGAACUACAGAAAUGUAGUUGACGAGGAGGAGGUUUUCCGAAUUUUCGGCGGAUCCCUCCAAA | < 1e-05 s⁻¹ | < 1e-05 s⁻¹ | < 1e-05 s⁻¹ |  |  |
| AUAAACGCGCCAGAACUACAGAAAUGUAGUUGACGAGGAGGAGGUUUAUCGAAUUUUCGGCGGAUGGCUCCAAA | < 1e-05 s⁻¹ |  |  |  |  |
| AUAAACGCGCCAGAACUACAGAAAUGUAGUUGACCAGGAGGAGGUUUAUCGAAUUUUCGGCGGAUGCCUCCAAA | < 1e-05 s⁻¹ | < 1e-05 s⁻¹ | < 1e-05 s⁻¹ | < 1e-05 s⁻¹ | < 1e-05 s⁻¹ |
